Among all 100,000 compounds or so, about 250 (0.25%) were called active. The inconclusive results got no clear call from the source; some entries with a clear call stand among them for comparison. Calls come from the whole dose curve; as a rule, active = well fitted inhibition curve with a large enough effect; inconclusive = small, poorly fitted or top-dose-only effect; inactive = flat fitted curve, though single readings scatter. No potency is given beside an inconclusive call; the fits are too rough.
target: Alanine aminotransferase 2 (Homo sapiens) (UniProt Q8TD30); experiment: Primary qHTS assay for inhibitors of Glutamate pyruvate transaminase 2 (GPT2); conditions: Recombinant GPT2, coupled pyruvate oxidase/HRP Amplex Red fluorescence; series mostly up to 57.7 µM; note: nearly all actives have a fitted effect of over 60% in size
Sequence of UniProt Q8TD30 (Q8TD30 whole entry, looked up): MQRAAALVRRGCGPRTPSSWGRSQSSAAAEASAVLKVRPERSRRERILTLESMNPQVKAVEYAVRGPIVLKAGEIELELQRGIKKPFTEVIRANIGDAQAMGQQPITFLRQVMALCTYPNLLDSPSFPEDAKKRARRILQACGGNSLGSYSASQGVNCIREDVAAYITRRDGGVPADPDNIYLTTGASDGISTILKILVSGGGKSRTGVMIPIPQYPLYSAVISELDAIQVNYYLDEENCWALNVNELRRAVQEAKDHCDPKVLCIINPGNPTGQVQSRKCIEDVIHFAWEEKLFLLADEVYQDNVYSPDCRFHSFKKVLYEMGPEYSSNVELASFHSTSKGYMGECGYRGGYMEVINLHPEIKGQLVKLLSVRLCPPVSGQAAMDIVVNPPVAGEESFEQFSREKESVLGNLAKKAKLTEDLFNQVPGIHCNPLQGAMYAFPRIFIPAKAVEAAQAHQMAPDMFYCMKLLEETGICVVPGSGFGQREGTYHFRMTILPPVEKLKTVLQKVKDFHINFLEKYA
Summary of the method: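 Recombinant GPT2 (10ng/uL) with 250uM a-KG and 2mM L-alanine, 30 min at room temperature, in HEPES pH 7.5 buffer. Pyruvate detected by pyruvate oxidase/HRP/Amplex Red fluorescence after 30 min in the dark; AOA (50uM) as positive control.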
Potency is the fitted concentration of half-maximal effect; tags give direction and shape of the fitted curve.

Row | Structure (SMILES) | Potency
1 | COC(=O)c1ccc2nc(C[C@@H]3C[C@@H](C(C)C)[C@H](CNC4CCN(C(C)=O)CC4)C=C3C)[nH]c2c1 | inactive
2 | CCCN(CCN1CCN(c2ccccc2OC)CC1)C1CCc2ncsc2C1 (stereo unspecified) | inconclusive [inhibitor, single point]
3 | O=C(NC1CCCC1)N1CCC(C(=O)N2CCC(N3Cc4ccccc4C3=O)CC2)CC1 | inconclusive [inhibitor, single point]
4 | O=C(NCc1ccccn1)C1c2ccccc2C(=O)N(C2CCCCC2)C12CCCCC2 (stereo unspecified) | inactive
5 | Cc1ccsc1/C=C/C1=NCCCN1C | inconclusive [inhibitor, single point]
6 | CCCCCCCCCCCCCCCCOP(=O)([O-])OCC[N+](C)(C)C | inconclusive [inhibitor, single point]
7 | c1ccc(Nc2cc3c(cn2)CN(Cc2c[nH]c4ccccc24)CCN3)cc1 | inconclusive [inhibitor, single point]
8 | O=[N+]([O-])c1ccc(Oc2ccc3c(c2)CCC(c2ccccc2)O3)nc1 (stereo unspecified) | inconclusive [inhibitor, single point]
9 | COc1ccc(S(=O)(=O)N2CC[C@H](n3c(=O)n(C)c4cccnc43)C2)cc1 | inconclusive [inhibitor, single point]
10 | NC[C@H]1O[C@@H]2C[C@@H](CC(=O)N3CCC(F)(F)C3)O[C@@H]2[C@@H]1O | inconclusive [inhibitor, single point]
11 | O=C(c1ccc(Cl)nc1)N1CCCC(C(=O)N2CCC(N3CCCC3=O)CC2)C1 (stereo unspecified) | inconclusive [inhibitor, single point]
12 | COc1ccc(C)cc1-c1cn(C)c(=O)n2cc(COc3ccc(Cl)cc3)nc12 | inactive
13 | COCCC1(N(C)C)CCN(C(=O)C2CC2)CC1 | inconclusive [inhibitor, partial curve, poor fit]
14 | O=C1NCCOCCCN(S(=O)(=O)c2cccs2)[C@H]2CCCC[C@@H]12 | inconclusive [inhibitor, single point]
15 | CCN1CCc2nc(N)oc2CC1 | inconclusive [inhibitor, single point]
16 | Cn1cccc1CN1CCC2(CC1)CC(=O)N(c1ccccc1)c1ccccc1O2 | inactive
17 | COc1ccccc1-c1cccc(CN2CCC(NC(=O)Cc3cccc(Cl)c3)CC2)c1 | inconclusive [inhibitor, single point]
18 | Cc1cc(C(=O)N2CCC(CC(=O)N(C)Cc3ccccc3)C2)n(C)n1 (stereo unspecified) | inactive
19 | C[C@@H]1CCC2C(C)(C)[C@H](O)CC[C@]2(C)[C@@]12Cc1c(O)cc3c(c1O2)CNC3=O (stereo partly specified) | inconclusive [inhibitor, single point]
20 | COCCn1c(CN(C)Cc2sccc2C)cnc1S(=O)(=O)CC1CCCCC1 | inconclusive [inhibitor, partial curve, poor fit]
21 | C[S+](=O)([O-])N1Cc2ccccc2CC2(CCCN(Cc3ccncc3)C2)C1 (stereo unspecified) | inactive

Row | Structure (SMILES) | Potency
22 | Cc1ccc(-c2cc(N3CCCN(C(=O)C(C)Oc4ccccc4)CC3)n[nH]2)cc1C (stereo unspecified) | inconclusive [inhibitor, partial curve]
23 | Cc1nn2c(c1-c1ccccc1OCc1ccccc1)N(C(=O)COc1ccccc1C(N)=O)CCC2 | inconclusive [inhibitor, single point]
24 | Cn1ncc2c(C(=O)NCc3cccs3)cc(-c3ccccc3)nc21 | inconclusive [inhibitor, single point]
25 | CC(=O)N1CCN(C(=O)[C@@]23CCCC[C@H]2N(CCC(C)C)C(=O)CC3)CC1 | inconclusive [inhibitor, partial curve]
26 | O=C(Cn1ccn2nc3c(c2c1=O)CCCC3)NCCCc1ccccc1 | inconclusive [inhibitor, single point]
27 | Cc1cc(O)c2ccccc2c1O | inconclusive [inhibitor, single point]
28 | COc1ccc(-n2nc(C3CCN(C(=O)c4ccccc4C)CC3)[nH]c2=O)cc1 | inconclusive [inhibitor, partial curve, poor fit]
29 | CCN(Cc1ccccc1)C(=O)CC1CCCN(c2cnn(CC)c(=O)c2)C1 (stereo unspecified) | inactive
30 | O=C(NCC(=O)N1CCCC1)c1ccc(-c2cccc(C(F)(F)F)c2)cc1 | inconclusive [inhibitor, full curve]
31 | COc1ccc(-c2cn(C)c(=O)n3cc(COc4ccnn4C)nc23)cc1OC | inconclusive [inhibitor, partial curve]
32 | O=C1NC2(CCN([S+](=O)([O-])c3cccc(C(F)(F)F)c3)C2)N=C1c1cccnc1 (stereo unspecified) | inactive
33 | CCCCNC(=O)c1cccc2c1CCN2C(=O)Nc1ccc(C)cc1 | inconclusive [inhibitor, full curve, poor fit]
34 | COc1ccc(C(=O)N[C@@H]2CCC[C@@H]2C(=O)NCCc2cccs2)cn1 | inconclusive [inhibitor, single point]
35 | CCOc1ccccc1CN1CCCCCCNC(=O)CC1c1ccccc1 (stereo unspecified) | inactive
36 | CC1=C[C@@H](CNC(=O)C2CCCCC2)[C@H](C(C)C)C[C@H]1Cc1nc2ccccc2n1C | inconclusive [inhibitor, single point]
37 | CS(=O)(=O)N(C1CCOCC1)C1CN(S(=O)(=O)c2ccccc2)C1 | inactive
38 | C[S+](=O)([O-])c1ccc(-c2cnc3[nH]cc(CC(=O)N4CCOCC4)c3c2)cc1 | inactive
39 | Cc1cc(C[C@@H]2COC[C@@H]2NC(=O)c2ccc(-n3cnnc3)cc2)on1 | inconclusive [inhibitor, single point]
40 | COc1ccc(-n2nc(C)c([C@@H]3C=C[C@@H](NS(=O)(=O)c4cccs4)C3)c2C)cc1 | inactive
41 | CC/C(C)=C/C(=O)OC1C(OC2(C)CCC3C(C4C(C)CCC42)C3(C)C)OC(C)C(O)C1O (stereo unspecified) | inconclusive [inhibitor, single point]

Source: PubChem BioAssay AID1671188 (National Center for Advancing Translational Sciences (NCATS), 2021)
